Results: the supplement of paper PMC4604168 (melanoma cell lines)
Some of the results follow. Repeats are few or missing, and single values can be far off.

Columns and labels:
Assay in all cases: cell count relative to DMSO control; melanoma cells; higher = more viable cells
Conditions in all cases: library dose: low library concentration; 72 h
MZ2-MEL = tested on: MZ2-MEL
MeWo = tested on: MeWo
RPMI7951 = tested on: RPMI7951
RVH-421 = tested on: RVH-421
SkMel28 = tested on: SkMel28
SkMel2 = tested on: SkMel2
SkMel30 = tested on: SkMel30
SkMel5 = tested on: SkMel5
UACC257 = tested on: UACC257
UACC62 = tested on: UACC62
WM115 = tested on: WM115
WM1716 = tested on: WM1716
WM1745 = tested on: WM1745
WM3526 = tested on: WM3526
WM3619 = tested on: WM3619
WM451Lu = tested on: WM451Lu
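Note: cell number obtained by counting DAPI-stained nuclei in high-throughput microscope images with image analysis software, screen run in 1,536-well plates.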

Row | Compound | cell count (MZ2-MEL) | cell count (MeWo) | cell count (RPMI7951) | cell count (RVH-421) | cell count (SkMel28) | cell count (SkMel2) | cell count (SkMel30) | cell count (SkMel5) | cell count (UACC257) | cell count (UACC62) | cell count (WM115) | cell count (WM1716) | cell count (WM1745) | cell count (WM3526) | cell count (WM3619) | cell count (WM451Lu)
1 | CC1(C)CCC(c2ccc(Cl)cc2)=C(CN2CCN(c3ccc(C(=O)NS(=O)(=O)c4ccc(N[C@H](CCN5CCOCC5)CSc5ccccc5)c(S(=O)(=O)C(F)(F)F)c4)cc3)CC2)C1 + O=C(Nc1ccccc1)c1cc([N+](=O)[O-])ccc1Cl [GW9662] (first compound 0.4 µM, partner dose 2 µM) | 96.4% | 67.9% | 53.9% | 67.8% | 98.9% | 80% | 71.5% | 65.4% | 66.4% | 83.4% | 84.8% | 80.6% | 26.2% | 84.5% | 79.5% | 85.3%
2 | O=C(/C=C/c1cccnc1)NCCCCC1CCN(C(=O)c2ccccc2)CC1 + COc1cc(Nc2ncc(F)c(Nc3ccc4c(n3)NC(=O)C(C)(C)O4)n2)cc(OC)c1OC [Tamatinib] (first compound 0.01 µM, partner dose 0.4 µM) | 50.2% | 94.3% | 95.4% | 60.4% | 81.5% | 57.3% | 69.3% | 73.2% | 54.2% | 78.7% | 70.6% | 74.4% | 76.8% | 81.5% | 92% | 83.3%
3 | CC1(C)CCC(c2ccc(Cl)cc2)=C(CN2CCN(c3ccc(C(=O)NS(=O)(=O)c4ccc(N[C@H](CCN5CCOCC5)CSc5ccccc5)c(S(=O)(=O)C(F)(F)F)c4)cc3)CC2)C1 + O=c1cc(-c2cccc3c2Sc2ccccc2S3)oc(N2CCOCC2)c1 [KU55933] (first compound 0.4 µM, partner dose 1 µM) | 90.5% | 81.1% | 63.2% | 98.4% | 78.6% | 81.4% | 71.9% | 75.8% | 105% | 108% | 90.6% | 81.1% | 19.2% | 88.6% | 78.5% | 98.1%
4 | Cc1ccc(Nc2nccc(N(C)c3ccc4c(C)n(C)nc4c3)n2)cc1S(N)(=O)=O [Pazopanib] + N#Cc1c(O)c2c(-c3ccc(-c4ccccc4O)cc3)csc2[nH]c1=O [A769662] (first compound 0.4 µM, partner dose 2 µM) | 77.8% | 112% | 93.8% | 98.8% | 102% | 94.1% | 89.1% | 102% | 94.8% | 100% | 96.6% | 89.2% | 107% | 88.9% | 106% | 99%
5 | CC1(C)CCC(c2ccc(Cl)cc2)=C(CN2CCN(c3ccc(C(=O)NS(=O)(=O)c4ccc(N[C@H](CCN5CCOCC5)CSc5ccccc5)c(S(=O)(=O)C(F)(F)F)c4)cc3)CC2)C1 + Cn1cncc1[C@@](N)(c1ccc(Cl)cc1)c1ccc2c(c1)c(-c1cccc(Cl)c1)cc(=O)n2C [tipifarnib] (first compound 0.4 µM, partner dose 0.01 µM) | 91.9% | 76.1% | 65.5% | 64% | 75.3% | 65% | 54% | 67.8% | 54.5% | 69.1% | 64.8% | 48.2% | 11.3% | 76.1% | 60.2% | 68.7%
6 | CC1(C)CCC(c2ccc(Cl)cc2)=C(CN2CCN(c3ccc(C(=O)NS(=O)(=O)c4ccc(N[C@H](CCN5CCOCC5)CSc5ccccc5)c(S(=O)(=O)C(F)(F)F)c4)cc3)CC2)C1 + O=C(O)C(=O)Nc1sc2c(c1C(=O)O)CCNC2 [TCS401] (first compound 0.4 µM, partner dose 1.66667 µM) | 93.6% | 72.1% | 60.7% | 62.2% | 115% | 86.8% | 63.2% | 63.4% | 68.7% | 94.7% | 89.9% | 83.6% | 7.46% | 85.4% | 86.6% | 74.8%
7 | CC1(C)CCC(c2ccc(Cl)cc2)=C(CN2CCN(c3ccc(C(=O)NS(=O)(=O)c4ccc(N[C@H](CCN5CCOCC5)CSc5ccccc5)c(S(=O)(=O)C(F)(F)F)c4)cc3)CC2)C1 + CCc1ccc(CCOc2ccc(CC3SC(=O)NC3=O)cc2)nc1 [pioglitazone] (first compound 0.4 µM, partner dose 2 µM) | 98.9% | 74.7% | 61.5% | 70.7% | 91.8% | 87.5% | 70.4% | 79.6% | 93.6% | 110% | 86.4% | 79.8% | 14.9% | 95.1% | 76.3% | 84.5%
8 | CC1(C)CCC(c2ccc(Cl)cc2)=C(CN2CCN(c3ccc(C(=O)NS(=O)(=O)c4ccc(N[C@H](CCN5CCOCC5)CSc5ccccc5)c(S(=O)(=O)C(F)(F)F)c4)cc3)CC2)C1 + COc1ccc(-c2ccc3c(N4CCOCC4)nc(N4C[C@@H](C)O[C@@H](C)C4)nc3n2)cc1CO [KU0063794] (first compound 0.4 µM, partner dose 0.02 µM) | 87% | 72.6% | 51.8% | 68.6% | 84.2% | 76.1% | 59.3% | 78.5% | 76.6% | 79.9% | 77.3% | 47.2% | 8.6% | 86.9% | 77% | 79.7%
9 | CC1(C)CCC(c2ccc(Cl)cc2)=C(CN2CCN(c3ccc(C(=O)NS(=O)(=O)c4ccc(N[C@H](CCN5CCOCC5)CSc5ccccc5)c(S(=O)(=O)C(F)(F)F)c4)cc3)CC2)C1 + CC(C)CCN1c2nc(Nc3cc(F)c(O)c(F)c3)ncc2N(C)C(=O)C1C [BID1870] (first compound 0.4 µM, partner dose 0.2 µM) | 98.1% | 37.7% | 35.1% | 145% | 51.1% | 81.2% | 38.3% | 68.3% | 173% | 60.1% | 60.6% | 55.2% | 34.9% | 71.2% | 108% | 88.6%
10 | CC1(C)CCC(c2ccc(Cl)cc2)=C(CN2CCN(c3ccc(C(=O)NS(=O)(=O)c4ccc(N[C@H](CCN5CCOCC5)CSc5ccccc5)c(S(=O)(=O)C(F)(F)F)c4)cc3)CC2)C1 + Oc1nc(-c2ccc(C(F)(F)F)cc2)nc2c1CSCC2 [XAV939] (first compound 0.4 µM, partner dose 2 µM) | 90.5% | 76.9% | 49.5% | 89.8% | 111% | 82.7% | 92.4% | 65.6% | 67.2% | 94.4% | 82.1% | 38.3% | 8.97% | 91% | 71.4% | 87.6%
11 | O=C(/C=C/c1cccnc1)NCCCCC1CCN(C(=O)c2ccccc2)CC1 + Cn1cc(/C=C2\C(=O)Nc3cccnc32)c2ccccc21 [GW441756] (first compound 0.01 µM, partner dose 0.4 µM) | 48.8% | 121% | 101% | 64.4% | 65.4% | 41.2% | 113% | 82.9% | 70.4% | 88.4% | 84.8% | 119% | 87.2% | 102% | 91.8% | 104%
12 | Cc1ccc(Nc2nccc(N(C)c3ccc4c(C)n(C)nc4c3)n2)cc1S(N)(=O)=O [Pazopanib] + OCCn1cc(-c2cnc3nnn(Cc4ccc5ncccc5c4)c3n2)cn1 [PF04217903] (first compound 0.4 µM, partner dose 1 µM) | 84.1% | 107% | 114% | 135% | 111% | 99.9% | 93.1% | 96.6% | 130% | 99.9% | 108% | 89.4% | 97% | 96.3% | 117% | 81.8%
13 | O=C(/C=C/c1cccnc1)NCCCCC1CCN(C(=O)c2ccccc2)CC1 + CCc1ccc(CCOc2ccc(CC3SC(=O)NC3=O)cc2)nc1 [pioglitazone] (first compound 0.01 µM, partner dose 2 µM) | 44.5% | 109% | 101% | 50% | 94.4% | 45.3% | 95.9% | 83.8% | 112% | 91.7% | 103% | 98.9% | 89.7% | 97.9% | 92.7% | 87.7%
14 | CC1(C)CCC(c2ccc(Cl)cc2)=C(CN2CCN(c3ccc(C(=O)NS(=O)(=O)c4ccc(N[C@H](CCN5CCOCC5)CSc5ccccc5)c(S(=O)(=O)C(F)(F)F)c4)cc3)CC2)C1 + CCCCCCCCCCCC1=C(O)C(=O)C=C(O)C1=O [Embelin] (first compound 0.4 µM, partner dose 1.2 µM) | 102% | 48.6% | 56% | 84.2% | 101% | 85.9% | 65% | 67.7% | 73.3% | 87.1% | 78% | 63.6% | 14.8% | 73.1% | 88.4% | 98.6%
15 | Cc1ccc(Nc2nccc(N(C)c3ccc4c(C)n(C)nc4c3)n2)cc1S(N)(=O)=O [Pazopanib] + CC1(C)NC(=O)N(c2ccc([N+](=O)[O-])c(C(F)(F)F)c2)C1=O [nilutamide] (first compound 0.4 µM, partner dose 1 µM) | 84.3% | 95.2% | 99.1% | 87.5% | 90.3% | 105% | 91.1% | 88.7% | 95% | 91.5% | 112% | 103% | 84.6% | 106% | 101% | 101%
16 | CC1(C)CCC(c2ccc(Cl)cc2)=C(CN2CCN(c3ccc(C(=O)NS(=O)(=O)c4ccc(N[C@H](CCN5CCOCC5)CSc5ccccc5)c(S(=O)(=O)C(F)(F)F)c4)cc3)CC2)C1 + CO[C@@H]1[C@H](N(C)C(=O)c2ccccc2)C[C@H]2O[C@]1(C)n1c3ccccc3c3c4c(c5c6ccccc6n2c5c31)C(=O)NC4 [Midostaurin] (first compound 0.4 µM, partner dose 0.08 µM) | 90.5% | 68.2% | 34.7% | 60.6% | 94.9% | 75.6% | 92.8% | 55.1% | 71.2% | 99.3% | 78.2% | 47.3% | 12.6% | 84.2% | 87.7% | 68.5%
17 | Cc1ccc(Nc2nccc(N(C)c3ccc4c(C)n(C)nc4c3)n2)cc1S(N)(=O)=O [Pazopanib] + O=S(=O)(c1ccccc1)N(CC(F)(F)F)c1ccc(C(O)(C(F)(F)F)C(F)(F)F)cc1 [T0901317] (first compound 0.4 µM, partner dose 1.4 µM) | 78.1% | 109% | 68.5% | 112% | 97.2% | 95.8% | 82.7% | 100% | 91.5% | 59.2% | 84.6% | 70.3% | 84% | 67% | 86.7% | 105%
18 | O=C(/C=C/c1cccnc1)NCCCCC1CCN(C(=O)c2ccccc2)CC1 + CN(C)S(=O)(=O)c1ccc2c(c1)/C(=C/c1cc3c([nH]1)CCCC3)C(=O)N2 [SU6656] (first compound 0.01 µM, partner dose 0.4 µM) | 44.2% | 88.8% | 105% | 53.7% | 80.2% | 44.1% | 107% | 86.3% | 107% | 80.3% | 85.6% | 95.8% | 97.6% | 97% | 93.6% | 75.5%
